The campaign covered roughly 310,000 compounds. About 14,000 (4.5%) showed an effect of 50% or more. Effects have a minus sign here. Some of the results follow.
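Note: peak tail current of the secondary pulse compared with the same well before compound.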

The target of the experiment is human ether-à-go-go-related gene (hERG) potassium channel (human, UniProt Q12809). Description: primary screen, population patch clamp on CHO cells stably expressing hERG.
human ether-à-go-go-related gene (hERG) potassium channel, sequence (Q12809 whole entry, looked up): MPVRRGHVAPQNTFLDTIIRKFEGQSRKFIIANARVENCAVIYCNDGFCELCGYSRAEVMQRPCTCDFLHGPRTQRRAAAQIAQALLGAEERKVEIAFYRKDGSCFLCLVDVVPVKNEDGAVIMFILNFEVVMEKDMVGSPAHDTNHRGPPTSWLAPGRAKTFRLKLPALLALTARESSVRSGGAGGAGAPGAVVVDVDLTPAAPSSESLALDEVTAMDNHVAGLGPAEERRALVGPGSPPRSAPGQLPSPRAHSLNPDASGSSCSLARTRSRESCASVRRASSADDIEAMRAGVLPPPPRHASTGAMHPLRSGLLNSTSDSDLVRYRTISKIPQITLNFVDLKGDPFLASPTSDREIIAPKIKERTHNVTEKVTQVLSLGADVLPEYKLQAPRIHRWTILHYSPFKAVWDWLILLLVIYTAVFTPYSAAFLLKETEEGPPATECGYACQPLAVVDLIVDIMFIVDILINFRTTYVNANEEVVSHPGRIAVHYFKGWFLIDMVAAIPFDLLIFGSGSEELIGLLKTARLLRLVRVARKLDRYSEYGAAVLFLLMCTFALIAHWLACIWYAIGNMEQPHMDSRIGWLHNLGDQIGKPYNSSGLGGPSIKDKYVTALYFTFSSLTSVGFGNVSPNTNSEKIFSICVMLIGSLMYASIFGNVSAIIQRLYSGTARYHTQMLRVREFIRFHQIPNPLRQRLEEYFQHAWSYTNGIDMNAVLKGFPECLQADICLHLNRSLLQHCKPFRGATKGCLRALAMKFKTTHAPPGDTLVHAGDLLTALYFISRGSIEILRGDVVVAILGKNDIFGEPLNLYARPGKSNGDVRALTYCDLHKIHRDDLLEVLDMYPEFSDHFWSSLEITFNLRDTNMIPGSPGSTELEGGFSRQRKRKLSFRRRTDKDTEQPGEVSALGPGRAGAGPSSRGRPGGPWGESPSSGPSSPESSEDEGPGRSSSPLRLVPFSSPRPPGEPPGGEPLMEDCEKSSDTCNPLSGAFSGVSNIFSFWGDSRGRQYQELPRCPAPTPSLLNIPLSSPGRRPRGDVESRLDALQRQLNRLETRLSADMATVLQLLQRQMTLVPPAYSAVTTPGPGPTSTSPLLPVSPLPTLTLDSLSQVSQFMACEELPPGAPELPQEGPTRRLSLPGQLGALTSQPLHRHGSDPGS
As to `CCOc1ccc2[nH]c(=O)c(CN(CCN3CCCC3)C(=S)Nc3ccccc3OC)cc2c1`, the “hERG current change (%, negative = inhibition) at 10uM” value is listed as -49.7%. Then `COC(=O)c1nc2nc(-c3cccs3)cc(C(F)(F)F)n2n1`, with 14.9%; and `O=C(Cc1cccs1)NCc1ccco1`, with 4.54%. Then `COc1ccc(Cl)cc1NC(=O)c1ccoc1C`, with 4.3%; and `CCOc1ccccc1NC(=O)CSc1nnc(-c2ccccc2Cl)n1Cc1ccco1`, with -32%. For `CCOC(=O)C1=C(COC(=O)/C=C/c2cccc(OC)c2OC)NC(=O)NC1C` (centres unmarked), the “hERG current change (%, negative = inhibition) at 10uM” value is listed as 8.07%. Take `COc1ccc(CNC(=O)C2CC(=O)N(C3CCCCC3)C2)cc1` (centres unmarked): the “hERG current change (%, negative = inhibition) at 10uM” value is listed as 13.7%. As to `O=C(O)c1cc(S(=O)(=O)Nc2cccc3ccccc23)c(Cl)cc1Cl`, the “hERG current change (%, negative = inhibition) at 10uM” value is recorded as 18.4%.

Regarding `N#Cc1ccccc1NC(=O)COc1c(Br)cc(Br)c2cccnc12`, the “hERG current change (%, negative = inhibition) at 10uM” value was found to be 4.2%. As to `COc1cccc(-c2ocnc2C(=O)Nc2ccc3c(c2)CCC3)c1`, the “hERG current change (%, negative = inhibition) at 10uM” value amounted to 6.88%.

For `CCC(NC(=O)c1ccc([N+](=O)[O-])cc1[N+](=O)[O-])c1ccccc1` (centres unmarked), the “hERG current change (%, negative = inhibition) at 10uM” value is given as -56%. Regarding `COc1ccccc1Cc1nc(-c2ccncc2)no1`, the “hERG current change (%, negative = inhibition) at 10uM” value is 11.8%. Regarding `O=S1(=O)C=C(SCCN2CCCCC2)c2ccccc21`, the “hERG current change (%, negative = inhibition) at 10uM” value is reported as -28%. Then `CN(CC(=O)Nc1ccc(Cl)c(C(F)(F)F)c1)C(=O)c1ccc2c(c1)NC(=O)CS2`, with -12.7%; and `COc1cc(C(=O)OCC(=O)N(C)Cc2ccccc2)cc(OC)c1OC`, with 1.05%; and `CCCCNC(=O)C12CCC(C)(C(=O)C1Br)C2(C)C` (centres unmarked), with -3.64%. Regarding `O=C(c1cccc(Br)c1)N1CCCC1`, the “hERG current change (%, negative = inhibition) at 10uM” value is 0.701%.

In the case of `CCOC(=O)c1[nH]c2cc3c(cc2c1NC(=O)CN1CCC(C)CC1)OCO3`, the “hERG current change (%, negative = inhibition) at 10uM” value was -6.85%. With `C[N+](C)(C)CCN(Cc1ccc(Cl)cc1)c1ccccn1.[I-]`, the “hERG current change (%, negative = inhibition) at 10uM” value was -14.4%. Turning to `Cc1sc2nc(CSc3ccccc3)nc(N3CCN(C)CC3)c2c1C`, the “hERG current change (%, negative = inhibition) at 10uM” value was -58.5%. To `CCOc1ccc(N(CC(=O)NC2CCCCC2)S(=O)(=O)c2c(C)noc2C)cc1` belongs 2%; to `CCOc1c2c(nc3ccc(Cl)cc13)CCC2`, 11.3%; to `O=C(CSc1nnnn1-c1ccc2c(c1)OCCO2)OC1CCCCC1`, -8.13%. In the case of `Cc1ccc(CNC(=O)CCc2ccc(S(=O)(=O)NC3CCCCC3)cc2)cc1`, the “hERG current change (%, negative = inhibition) at 10uM” value is on record as 17.4%.

As for `COc1cc(OC)cc(C(=O)N/N=C2/SCC(=O)N2Cc2ccco2)c1`, the “hERG current change (%, negative = inhibition) at 10uM” value is listed as -12.2%. For the compound `CCCCNc1c2c(nc3c(-c4ccccc4)c(C)nn13)CCC2`, the “hERG current change (%, negative = inhibition) at 10uM” value is listed as -3.59%. As to `CCOc1ccc(NC(=O)c2sc3nc(C)nc(N4CCOCC4)c3c2C)cc1`, the “hERG current change (%, negative = inhibition) at 10uM” value is -50.7%. As to `CC1CCCC(C)N1C(=O)CSc1nnc(CSc2ncccn2)n1C` (centres unmarked), the “hERG current change (%, negative = inhibition) at 10uM” value worked out at 9.02%. To `CCC(=O)c1cn([C@H](CCC(OC)OC)CC(=O)OC(C)(C)C)cc1CC` belongs 8.38%; to `Cc1ccc(NC(=O)c2ccc(S(=O)(=O)N3CCC(C)CC3)cc2)cc1`, -5.78%; to `CCCN(CC(=O)Nc1ccccc1C)C(=O)c1ccc(-c2ccc(C(C)=O)cc2)o1`, -15.8%.

As to `CCN(CC)S(=O)(=O)c1cc(C(=O)Nc2cccnc2Cl)ccc1Cl`, the “hERG current change (%, negative = inhibition) at 10uM” value was found to be 8.87%. Regarding `CNC(C)CCC=C(C)C.O=C(O)C(O)C(O)C(O)C(O)C(=O)O` (centres unmarked), the “hERG current change (%, negative = inhibition) at 10uM” value was determined as 15.3%. With `CCCCN1C[C@H](Cc2ccccc2)[C@@H](CC(=O)NCc2ccc(OC)cc2)C1=O`, the “hERG current change (%, negative = inhibition) at 10uM” value was -61.8%. For `COc1cc(/C=N/N(C)C)ccc1OC(=O)c1ccco1`, the “hERG current change (%, negative = inhibition) at 10uM” value stood at 50.4%. As to `CC(C(=O)O/N=C(\N)c1cccnc1)c1ccc([N+](=O)[O-])cc1` (centres unmarked), the “hERG current change (%, negative = inhibition) at 10uM” value is recorded as -56.8%.

Consider `CCc1cccc(NC(=O)CCc2c(C)nn(-c3ccc(N4CCCCC4)nn3)c2C)c1`, for which the “hERG current change (%, negative = inhibition) at 10uM” value is given as -19%.

For the compound `c1ccc(CSc2nnc(-c3ccco3)o2)cc1`, the “hERG current change (%, negative = inhibition) at 10uM” value was found to be 13%. Turning to `COc1ccc(CNn2c(C)nc3ccccc3c2=O)cc1`, the “hERG current change (%, negative = inhibition) at 10uM” value is listed as -6.38%. Take `C/C(=N/O)c1ccc2ccc3ccccc3c2c1`: the “hERG current change (%, negative = inhibition) at 10uM” value was -2.53%.

On to `COCCNC(=O)Cn1c(=O)n(CCCCCC(=O)Nc2ccccc2)c(=O)c2sccc21`, for which the “hERG current change (%, negative = inhibition) at 10uM” value is -27.4%. Take `O=C(NCCCN1CCOCC1)c1ccc(N2CCCC2)c([N+](=O)[O-])c1`: the “hERG current change (%, negative = inhibition) at 10uM” value was -16.8%. Regarding `CC(C(=O)NC(C)(C)C)N(C(=O)CS(=O)CC(=O)Nc1ccc(F)cc1)c1ccccc1F` (centres unmarked), the “hERG current change (%, negative = inhibition) at 10uM” value is on record as 19%. As for `CCc1ccc[n+](-c2nc([O-])sc2C=O)c1`, the “hERG current change (%, negative = inhibition) at 10uM” value was 10.1%. `O=C(O)CCCC(=O)N(Cc1ccccc1)Cc1ccccc1`: the “hERG current change (%, negative = inhibition) at 10uM” value turned out to be 30.4%. Turning to `Cc1ccc(NC(=O)c2oc3ccc(S(=O)(=O)N4CCOCC4)cc3c2C)c(C)c1`, the “hERG current change (%, negative = inhibition) at 10uM” value is reported as 5.03%. As to `O=C(COc1ccc(Cl)cc1)Nc1nnc(C2=COCCO2)o1`, the “hERG current change (%, negative = inhibition) at 10uM” value was 11.3%.

In the case of `C/C(CC(=O)Nc1ccc(N(C)C)cc1)=N\NC(=O)c1ccc(Cl)cc1Cl`, the “hERG current change (%, negative = inhibition) at 10uM” value is given as -5.01%. For the compound `COc1ccc(NC(=O)c2cc(-c3ccc(OC)c(OC)c3)nc3ccccc23)c(OC)c1`, the “hERG current change (%, negative = inhibition) at 10uM” value worked out at 4.92%.

Consider `CCCC(OC(=O)CN1C(=O)COc2ccccc21)C(=O)NC1CCCC1` (centres unmarked), for which the “hERG current change (%, negative = inhibition) at 10uM” value is reported as 2.25%. As to `CCc1ccc(NC(=O)CN(C(=O)N2CCN(CC)CC2)S(=O)(=O)c2ccc(C)cc2)cc1`, the “hERG current change (%, negative = inhibition) at 10uM” value is 9.35%. For the compound `COc1ccccc1C(=O)NCC(=O)NC(C)CCc1ccccc1` (centres unmarked), the “hERG current change (%, negative = inhibition) at 10uM” value was 1.99%.

Take `COc1ccc(-c2csc3nc(C)n(-n4cccc4)c(=O)c23)cc1`: the “hERG current change (%, negative = inhibition) at 10uM” value is 8.94%.

Consider `CSc1ncccc1C(=O)OCC(=O)Nc1ccc2c(c1)OCO2`, for which the “hERG current change (%, negative = inhibition) at 10uM” value amounted to 26.1%. Then `Cc1cccc(NC(=O)c2cc(S(=O)(=O)N3CCc4ccccc43)cn2C)c1`, with 15.9%; and `CN(C)CCCNC(=O)C(=O)Nc1ccc2c(c1)N(S(=O)(=O)c1cccs1)CCC2`, with -21.4%. To `CCN(CC)S(=O)(=O)c1ccc(NC(=O)CCNC(=O)c2ccccc2)cc1` belongs 1.57%; to `COc1ccc(NC(=O)CN(C)C(=O)CSc2ccc3c(c2)OCCO3)cc1`, 0.83%; to `CCOC(=O)N1CCc2c(sc3c2c(=O)n(-c2ccc(CC)cc2)c(=O)n3CC(=O)NCC2CCCO2)C1` (centres unmarked), 2.84%. To `Cc1ccc(NC(=O)NCC2CCN(Cc3cccc(Cl)c3)CC2)cc1Cl` belongs -19.7%; to `O=C(CCl)Nc1cccc(-c2cnc3ccccc3n2)c1`, -26.4%; to `O=C1NNC(c2ccccc2)=N/C1=C\c1ccco1`, 1.66%. With `O=C(CCc1nc2ccccc2c(=O)[nH]1)NNC(=O)COc1cccc(F)c1`, the “hERG current change (%, negative = inhibition) at 10uM” value is -1.88%. With `CCOC(=O)/C=C1\SCC(=O)N1CC(=O)NC(c1ccccc1)c1ccccc1`, the “hERG current change (%, negative = inhibition) at 10uM” value is listed as -52.2%. Consider `C#CCOCCOCCOCCNc1nc(N2CCN(C(=O)CCCCCCCCCCNC(=O)[C@@H](CCC(=O)O)n3cc(CCCCCN)nn3)CC2)nc(N2CCN(C(=O)CCCCCCCCCCNC(=O)[C@H](CO)n3cc(CCCSC)nn3)CC2)n1`, for which the “hERG current change (%, negative = inhibition) at 10uM” value stood at 11.9%.

For the compound `CCOC(=O)c1c(C)nc2sc3c(=O)n(-c4ccc(OC)cc4)nnc3c2c1-c1ccc(OC)cc1`, the “hERG current change (%, negative = inhibition) at 10uM” value was 5.32%.

Turning to `O=c1c2[nH]c3cccc(Cl)c3c2ncn1CC1CCCO1` (centres unmarked), the “hERG current change (%, negative = inhibition) at 10uM” value is listed as -9.51%.

On to `Cc1nc2ccccc2c(=O)n1/N=C/c1cccs1`, for which the “hERG current change (%, negative = inhibition) at 10uM” value is reported as -8.04%. To `Cc1cc2c(cc1C)/C(=C\C(N)=O)NC(C)(C)C2` belongs -5.01%.

In the case of `COc1ccc2c(c1)C(=NO)c1cc(OC)ccc1-2`, the “hERG current change (%, negative = inhibition) at 10uM” value is recorded as 6.05%. On to `CCCCNC(=O)OC1CCS(=O)(=O)C1` (centres unmarked), for which the “hERG current change (%, negative = inhibition) at 10uM” value is reported as 18.9%. With `Cc1ccc(/C=N\NC(=O)c2cc(OCC(F)(F)F)ccc2OCC(F)(F)F)cc1`, the “hERG current change (%, negative = inhibition) at 10uM” value is 9.91%. Turning to `COc1ccc(-c2noc(CSc3nc4sc(C)c(C)c4c(=O)n3-c3ccccc3)n2)cc1OC`, the “hERG current change (%, negative = inhibition) at 10uM” value was 0.856%.

As to `CC(=O)c1cccc(NC(=O)c2cc(=O)[nH]c3ccccc23)c1`, the “hERG current change (%, negative = inhibition) at 10uM” value is on record as 4.05%.

For `COC(=O)c1nc2n(n1)C(c1cccc(Cl)c1)C1=C(CC(C)(C)CC1=O)N2` (centres unmarked), the “hERG current change (%, negative = inhibition) at 10uM” value was determined as 1.16%. With `O=C(Cc1ccccc1)Nc1ccc2oc(=O)ccc2c1`, the “hERG current change (%, negative = inhibition) at 10uM” value stood at 14.3%. For `CC(C)(C)NC(=O)C(OC(=O)c1cccs1)c1ccccc1` (centres unmarked), the “hERG current change (%, negative = inhibition) at 10uM” value is listed as 58.8%. To `CCCN1CCN(C(=O)Cn2cccc2C(=O)c2ccccc2)CC1` belongs -18.1%; to `O=C(O)C1CCCN1S(=O)(=O)c1ccc2c(c1)CCC2` (centres unmarked), -48.8%. Take `O=C(CCS(=O)(=O)c1ccccc1)NC1CCCC1`: the “hERG current change (%, negative = inhibition) at 10uM” value is -13.4%. To `COc1ccccc1CC(=O)N1CCN(c2cccc(Cl)c2)CC1` belongs -1.64%.

Consider `COc1ccccc1-c1cc(C(=O)NCc2ccc(F)cc2)no1`, for which the “hERG current change (%, negative = inhibition) at 10uM” value is -5.1%. Then `Cc1ccc(N(CC(O)CON=C2c3ccccc3-c3ccccc32)S(C)(=O)=O)cc1` (centres unmarked), with 15.5%; and `COc1ccc(Nc2nc(C)nc3c2nnn3Cc2ccccc2Cl)c(OC)c1`, with 14.8%. In the case of `Cc1sc(NC(=O)Cc2ccc3c(c2)OCO3)nc1-c1ccc2c(c1)CCN2C(=O)c1ccccc1F`, the “hERG current change (%, negative = inhibition) at 10uM” value was -0.586%. To `CC(C)(C)NC(=O)COC(=O)c1c2c(nc3ccccc13)CCC2` belongs 18.1%.

Values taken from publication PMC4336329 (PLoS ONE, 2015).
